Data reported in article PMC4336329 (PLoS ONE, 2015).
The campaign covered roughly 310,000 compounds. About 2,200 (0.71%) showed an effect of 50% or more. Effects have a minus sign here. The list shows a part of the results.

target: human ether-à-go-go-related gene (hERG) potassium channel (human, UniProt Q12809); test: primary screen, population patch clamp on CHO cells stably expressing hERG
Sequence (Q12809 whole entry, looked up): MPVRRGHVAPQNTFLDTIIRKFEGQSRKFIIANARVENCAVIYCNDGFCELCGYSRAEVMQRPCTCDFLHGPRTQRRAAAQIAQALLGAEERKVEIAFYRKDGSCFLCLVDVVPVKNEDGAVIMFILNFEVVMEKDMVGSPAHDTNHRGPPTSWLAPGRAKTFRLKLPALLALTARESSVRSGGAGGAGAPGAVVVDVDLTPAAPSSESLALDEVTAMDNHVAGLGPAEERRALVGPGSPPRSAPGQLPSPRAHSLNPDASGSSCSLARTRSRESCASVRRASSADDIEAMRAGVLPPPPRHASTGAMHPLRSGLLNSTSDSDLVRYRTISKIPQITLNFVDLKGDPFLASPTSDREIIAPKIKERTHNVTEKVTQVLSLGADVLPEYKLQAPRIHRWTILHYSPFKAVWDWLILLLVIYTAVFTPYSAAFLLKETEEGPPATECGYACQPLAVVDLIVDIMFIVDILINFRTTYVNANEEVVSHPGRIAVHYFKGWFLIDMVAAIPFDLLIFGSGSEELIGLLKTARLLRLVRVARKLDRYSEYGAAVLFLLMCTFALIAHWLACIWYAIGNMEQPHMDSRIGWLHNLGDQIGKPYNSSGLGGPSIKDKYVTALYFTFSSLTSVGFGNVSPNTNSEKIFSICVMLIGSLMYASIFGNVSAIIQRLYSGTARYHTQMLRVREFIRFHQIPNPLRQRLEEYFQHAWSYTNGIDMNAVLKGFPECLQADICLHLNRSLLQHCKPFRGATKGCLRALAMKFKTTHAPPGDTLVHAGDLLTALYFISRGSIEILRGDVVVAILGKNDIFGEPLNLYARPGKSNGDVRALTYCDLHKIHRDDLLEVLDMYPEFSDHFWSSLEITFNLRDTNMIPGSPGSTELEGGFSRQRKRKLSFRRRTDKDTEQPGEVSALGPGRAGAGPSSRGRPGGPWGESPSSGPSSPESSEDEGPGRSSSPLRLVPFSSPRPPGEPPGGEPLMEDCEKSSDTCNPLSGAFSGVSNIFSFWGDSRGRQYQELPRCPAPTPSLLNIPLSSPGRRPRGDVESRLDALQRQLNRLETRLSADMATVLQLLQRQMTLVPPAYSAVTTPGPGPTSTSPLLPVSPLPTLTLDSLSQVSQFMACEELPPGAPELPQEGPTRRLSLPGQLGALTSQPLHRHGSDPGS

First: CCOc1ccccc1NC(=S)N1CCN(c2ccccc2)CC1
Second: COc1ccc(Cn2c(=S)[nH]c3cc(C(=O)N4CCN(c5ccccc5)CC4)ccc3c2=O)cc1
The “hERG current change (%, negative = inhibition) at 1uM” value of the first is lower: 7.91% for the first, 16.7% for the second.

Compared with O=C(O)CSc1ncnc2c1sc1nc(-c3ccccc3)c3c(c12)CCC3, Nc1c2c(nc3cccc(Cl)c13)N(c1ccccc1)CC2 is higher in “hERG current change (%, negative = inhibition) at 1uM” value: 10.2% for the first, 27.5% for the second.

Compared with CCSc1sc(CC)cc1C=O, CCc1noc(C)c1C(=O)OCC(=O)Nc1cccc(C)c1 is lower in “hERG current change (%, negative = inhibition) at 1uM” value: 9.21% for the first, 2.19% for the second.

First: CN(Cc1ccc(Cl)c(Cl)c1)C(=O)c1cccc(S(=O)(=O)N2CCN(Cc3ccccc3)CC2)c1
Second: COc1ccccc1N1CCN(CC(=O)Nc2ccc(CN3CCCCC3)cc2)CC1.Cl
The “hERG current change (%, negative = inhibition) at 1uM” value of the first is lower: 3.36% for the first, 7.6% for the second.

Going from COc1ccc(S(=O)(=O)N(CC(=O)NCC2CCCO2)c2ccc(Cl)cc2)cc1 (stereo not shown) to COc1ccc(-n2c(Cc3cccn3C)nnc2SCC(=O)NC2CCCC2)cc1, the “hERG current change (%, negative = inhibition) at 1uM” value falls from 3.43% to 2.53%.

Compared with COc1ccc(-c2nnc3ccc(SCC(=O)Nc4nc5ccc(C)cc5s4)nn23)cc1OC, COc1cc(NC(=O)CCc2nnc3ccc(N4CCCC4)nn23)cc(OC)c1OC is lower in “hERG current change (%, negative = inhibition) at 1uM” value: 10.7% for the first, 9.17% for the second.

Compared with CCOc1ccc(C2C(C#N)=C(N)Oc3nc[nH]c(=O)c32)cc1OC (stereo not shown), COc1cc(C(=O)Oc2cccc(C(=S)N3CCOCC3)c2)cc(OC)c1OC is lower in “hERG current change (%, negative = inhibition) at 1uM” value: 9.81% for the first, 3.58% for the second.

First: S=c1[nH]nc(C2CC2)n1Cc1ccccc1
Second: CC(NC(=O)CSc1nc(C2CC2)n(-c2ccccc2)n1)c1ccco1 (stereo not shown)
The “hERG current change (%, negative = inhibition) at 1uM” value of the first is higher: 30.9% for the first, -7.78% for the second.

Compared with Cc1ccnc(NC(=O)/C=C/c2ccccc2[N+](=O)[O-])c1, Cc1cccc(NC(=O)CN2C(=O)CSC2=O)c1 is lower in “hERG current change (%, negative = inhibition) at 1uM” value: 17.8% for the first, -4.48% for the second.

Going from Cc1ccc(C)c(S(=O)(=O)NCc2ccc3c(c2)OCO3)c1 to Cc1cccc(N(C)S(=O)(=O)c2ccc3c(c2)C(C)(C)C(=O)N3C)c1, the “hERG current change (%, negative = inhibition) at 1uM” value falls from 12.1% to 9.57%.

Compared with Oc1ccc(-c2nccc(-c3ccccn3)n2)cc1, COc1ccc(C2CC(c3ccccc3)=NN2C(=O)COC(=O)c2cccnc2)cc1 (stereo not shown) is lower in “hERG current change (%, negative = inhibition) at 1uM” value: 14.5% for the first, 12.2% for the second.

First: Cc1ccc(C(=O)N/C(=C\c2cccs2)C(=O)NCCCN2CCOCC2)cc1
Second: COC(=O)Cc1ccc(NC(=S)NCCCN2CCOCC2)cc1
The “hERG current change (%, negative = inhibition) at 1uM” value of the first is lower: -40.7% for the first, 10% for the second.

Compared with O=C(Cc1ccccc1F)OCN1C(=O)c2ccccc2C1=O, CC(C)(C)c1ccccc1NC(=O)CN1C(=O)NC(Cc2ccccc2)C1=O (stereo not shown) is lower in “hERG current change (%, negative = inhibition) at 1uM” value: 14.7% for the first, 13.5% for the second.

Compared with Cn1c(N)c(C(=O)COC(=O)C2CC(O)CN2S(=O)(=O)c2ccc(Cl)cc2)c(=O)n(C)c1=O (stereo not shown), CCOC(=O)c1c(C)[nH]c(C(=O)COC(=O)CNC(=O)c2ccccc2Cl)c1C is higher in “hERG current change (%, negative = inhibition) at 1uM” value: 7.81% for the first, 11.6% for the second.

First: CC(=O)Nc1ccc(NC(=O)COc2ccc(-c3ccc(C#N)cc3)cc2)cc1
Second: CCOc1ccc(NC(=O)CCNS(=O)(=O)c2ccc(Br)s2)cc1
The “hERG current change (%, negative = inhibition) at 1uM” value of the first is higher: 8.3% for the first, -6.05% for the second.

First: Cc1nnc(NC(=O)CCSCCC(=O)Nc2nnc(C)s2)s1
Second: Cc1cc(NC(=O)CCc2ccc(C)o2)no1
The “hERG current change (%, negative = inhibition) at 1uM” value of the first is higher: 9.93% for the first, 3.28% for the second.

Going from CCCCC(=O)Oc1c(S(=O)(=O)c2ccc(C)cc2)c(C)nn1C(C)(C)C to CC(C)(C)c1ccc(C(=O)O)c(C(=O)c2ccc(C(=O)O)cc2)c1, the “hERG current change (%, negative = inhibition) at 1uM” value rises from -10.8% to 8.21%.

First: O=C(NCCOc1ccccc1)c1n[nH]c(=O)c2ccccc12
Second: Cc1nc2ccccn2c1C(=O)N/N=C/c1ccc(CNC(=O)C(=O)Nc2ccccc2)o1
The “hERG current change (%, negative = inhibition) at 1uM” value of the first is higher: 11.5% for the first, 0.629% for the second.

Compared with CCC(C)NC(=O)c1nc2c(nnn2Cc2ccccc2Cl)c(=O)[nH]1 (stereo not shown), Cc1c(C(=O)N2CCCCCC2)c(S(=O)(=O)NCc2ccccc2Cl)c(C)n1C is lower in “hERG current change (%, negative = inhibition) at 1uM” value: 5.3% for the first, 4.3% for the second.

Going from CC(c1ccco1)N(C(=O)Nc1ccccc1)C1CCCCC1 (stereo not shown) to O=Cc1ccc(OCC(=O)NC(=O)NC2CCCCC2)cc1, the “hERG current change (%, negative = inhibition) at 1uM” value falls from 9.92% to -2.06%.

Compared with C=CCOc1ccc(C(c2c(O)nc(SC)[nH]c2=O)c2c(O)nc(SC)[nH]c2=O)cc1, Cc1ccc(-c2cc(C(=O)NCc3cnn(C)c3C)c3cc(Br)ccc3n2)cc1 is lower in “hERG current change (%, negative = inhibition) at 1uM” value: 13.5% for the first, 10.6% for the second.

First: O=C(CC(c1ccccc1)c1cc(Br)ccc1O)NCCCN1CCOCC1 (stereo not shown)
Second: O=C(NCC(c1cccs1)N1CCOCC1)C1CCN(S(=O)(=O)c2ccccc2C(F)(F)F)CC1 (stereo not shown)
The “hERG current change (%, negative = inhibition) at 1uM” value of the first is higher: -10.8% for the first, -13% for the second.

First: CCOC(=O)c1[nH]c(C)c(C(=O)OCC(=O)N2CCCCC2C)c1C (stereo not shown)
Second: CCN1CCCC1CNC(=O)Cn1cnc2ccc(S(=O)(=O)N3CCC(C)CC3)cc2c1=O (stereo not shown)
The “hERG current change (%, negative = inhibition) at 1uM” value of the first is higher: 15.7% for the first, -11.3% for the second.

Compared with CC1CCC2=NN(C(=O)c3ccco3)C(O)(C(F)(F)F)C2C1 (stereo not shown), Cc1cccc(N2CCN(C(=O)C3CCC(=O)N(C4CC4)C3)CC2)c1C (stereo not shown) is lower in “hERG current change (%, negative = inhibition) at 1uM” value: 13.6% for the first, 12.6% for the second.

Compared with CCCN(CC(=O)Nc1ccc(F)c(F)c1F)C(=O)Cc1ccc(S(=O)(=O)N2CCOCC2)s1, CN(C)CCN(C(=O)c1ccc(S(=O)(=O)N(C)C)cc1)c1nc2cc3c(cc2s1)OCCO3.Cl is lower in “hERG current change (%, negative = inhibition) at 1uM” value: 8.43% for the first, -0.87% for the second.

First: Brc1ccc(-c2nnc3n2-c2ccccc2CC3)cc1
Second: CN(C)C(=O)c1ccc(Nc2nc(-c3cccs3)nc3ccccc23)cc1
The “hERG current change (%, negative = inhibition) at 1uM” value of the first is lower: -2.98% for the first, 4.89% for the second.

Going from Cc1cnc(NC(=O)C2CC(=O)N(c3cccc(Cl)c3)C2)s1 (stereo not shown) to CC(C)C12CN3CC(C(C)C)(CN(C1)C3c1ccccc1)C2O (stereo not shown), the “hERG current change (%, negative = inhibition) at 1uM” value rises from -1.08% to 6.19%.

With CC1(C)CC2(C)OC(=N)C1(C#N)C2(C#N)C#N (stereo not shown) the “hERG current change (%, negative = inhibition) at 1uM” value was 11.2%.
